Data: the RNAGym collection of RNA variant scans (doi:10.1093/nar/gkz1192)
Read counts are not given, so values of variants with three or more changes are uncertain.

B1: CPEB3 Ribozyme (parent)
chain: UAACAGGGGGCCACAGCAGAAGCGUUCACGUCGCAGCCCCUGUCAGAUUCUGGUGAAUCUGCGAAUUCUGCUGUAUAUCUC

Variants of: B1
Assay: self-cleavage, relative activity (ratio to wild type); higher = more cleavage; in vitro, sequencing
Procedure, shortened: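 Relative activity compares each variant's cleaved/total read fraction with that of the unmutated ribozyme. To get these fractions, barcoded CPEB3 ribozyme libraries from rounds of error-prone PCR were transcribed with T7 RNA polymerase for 5 hours at 37°C and then given 15 min of DNase I treatment before EDTA was added. The RNAs were reverse transcribed with template switching and sequenced on Illumina, and DNA sequencing linked barcodes to variants. A minimum of 5 reads applied, and three batches were averaged.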
For UAACAGGUGGCCACUGCAGAAGCGUUCACGUCGCAGCCCCUGUCAGAUUCUGGUGAACCUGCGAAUUCUGCUGUAUAUCUC [G8U A15U U58C], the self-cleavage was 0.12. UAACAGGUGGCCACAGCGGAUGCGUUCACGUCGCAGCCCCUGUCAGAUUCUGGCGAAUCUGCGAAUUCUGCUGUAUAUCUC [G8U A18G A21U U54C] showed a self-cleavage of 0.05. Work on UAACAGGUGGCCACAGCGGAAGCGUUCGCGUCGCAGCCCCUGUCAGAUUCUGGUGGAUCUGCGAAUUCUGCUGUAUAUCUC [G8U A18G A28G A56G] yielded a self-cleavage of 0.05. With UAACAGGUGGCCACAGCGGAAGCGUUCGCGUCGCAGCCCCUGUCAGAUUCUGGUGAAUCUGCGAAUUCUGCUGUGUAUCUC [G8U A18G A28G A75G] the self-cleavage was 0.08. Work on UAACAGGUGGCCACAGCGGAAGCGUUCACGUCGCAGCCCCAGUCAGAUUCUGGUGUAUCUGCGAAUACUGCUGUAUAUCUC [G8U A18G U41A A56U U67A] yielded a self-cleavage of 0.12. Variant UAACAGGUGGCCACAGCGGAAGCGUUCACGUCGCAGCCCCUGUCAGAUUCUGGUGAAUCUGCGAAUCCUGCUGUAUAUCUC [G8U A18G U67C] has a self-cleavage of 0.09. For UAACAGGUGGCCACAGCUGGGGCGUUCACGUCGCAGCCCCUGUCAGAUUCUGGUGAAUCUGCGAAUUCUGCUGUAUAUCCC [G8U A18U A20G A21G U80C], the self-cleavage was 0.4. In the case of UAACAGGUGGCCACAGCUGAGGCGUUCACGUCGCUGCCCCUGUCAGAUUCUGGUGAAUCUGCGAAUCCUGCUGUAUAUCUC [G8U A18U A21G A35U U67C], the self-cleavage is reported as 0.04. Work on UAACAGGUGGCCACAGCUGAAGCGUACACGUCGCAGCCCCCGUCAGGUUCUGGUGAAUCUGCGGAGUCUGCUGUAUAUCUC [G8U A18U U26A U41C A47G A64G U66G] yielded a self-cleavage of 0.14. With UAACAGGUGGCCACAGCUGAAGCGUGCACGUCGCAGCCCCUGUCAGGUUCUGGUGAAUCUGCGAAUUCUGCUGUAUAUCAC [G8U A18U U26G A47G U80A] the self-cleavage was 0.04. Work on UAACAGGUGGCCACAGCUGAAGCGUUCACGUCGCAGCCCCCGUCAGAUUCUGGUGAAUCUGCGAAUUCUGCUGUAUAUCUC [G8U A18U U41C] yielded a self-cleavage of 0.17. In the case of UAACAGGUGGCCACAGCUGAAGCGUUCACGUCGCAGCCCCUGUCAGACUCUGGUGAAUCUGCGAAUUCUGCUGUAUAUCUC [G8U A18U U48C], the self-cleavage is reported as 0.06. In the case of UAACAGGUGGCCACAGCAGCAGCGUUCACGUCGCAGCCCCUGUCAGAUUCUGGUGAAUCUGCCAAUUCUGCUGUAUAUCUC [G8U A20C G63C], the self-cleavage is reported as 0. With UAACAGGUGGCCACAGCAGGGGCGUUCACGUCGCAGCCCCUGUCAGAUUCUGGUGAAUCUGCGAAUUCUGCUGAAUAUCCC [G8U A20G A21G U74A U80C] the self-cleavage was 0.31. Variant UAACAGGUGGCCACAGCAGGAGCGUUCGCGUUGCUGCCCCUGUCAGAUUCUGGUGAAUCUGCGAAUUCUGCUGUAUAUCUC [G8U A20G A28G C32U A35U] has a self-cleavage of 0.06. UAACAGGUGGCCACAGCAGGAGCGUUCACGUCGCAGCCCCUGUCAGGUACUGGUGAAUCUGAGAAUUCCGCUGUAUAUCUC [G8U A20G A47G U49A C62A U69C] showed a self-cleavage of 0.1. For UAACAGGUGGCCACAGCAGGAGCGUUCACGUCGCAGCCCCUGUCAGAUUCUGGUGAGUCUGCGAAUUCUGCUGUAUAUCUC [G8U A20G A57G], the self-cleavage was 0.09. For UAACAGGUGGCCACAGCAGGAGCGCUCACGUCGCAGCCCCUGUCAGAUUCUGGUGGAUCUGCGAAUUCUGCUGUAUACCUC [G8U A20G U25C A56G U78C], the self-cleavage was 0.17. For UAACAGGUGGCCACAGCAGGAGCGUCCACGUCGCAGCCCCUGUCAGAUUCUGGUGAAUCUGCGAAUUCCGCUGUAUAUCUC [G8U A20G U26C U69C], the self-cleavage was 0.12. With UAACAGGUGGCCACAGCAGGAGCGUUCACGUCGCAGCCCCUGUCAGAGUCCGGCGAAUCUGCGAAUUCUACUGUAUAUCUC [G8U A20G U48G U51C U54C G70A] the self-cleavage was 0.05. Work on UAACAGGUGGCCACAGCAGUAGCGUUCACGUCGCUGCCCCUGUCAGAUUCUGGCGAAUCUGCGAAUUCUGCUGUAUAUCUC [G8U A20U A35U U54C] yielded a self-cleavage of 0.06. With UAACAGGUGGCCACAGCAGUAGCGUUCACGUUCCAGCCCCUGUCAGAUUCUGGCGAAUCUGCGAAUUCUGCUGCAUAUCUC [G8U A20U C32U G33C U54C U74C] the self-cleavage was 0.1. UAACAGGUGGCCACAGCAGUAGCGCUCACGUCUCAGCCCCUGUCAGAUUCUGGUGAAUCUGCGAAUUCUGCCGUAUAUCUC [G8U A20U U25C G33U U72C] gave a self-cleavage of 0.05. In the case of UAACAGGUGGCCACAGCAGAGGCGUUCACGUCGCAGCCCCUGUCAGAUUCUGGUGUAUCAGCGAACUCUGCCGUAUAUCUC [G8U A21G A56U U60A U66C U72C], the self-cleavage is reported as 0.08. UAACAGGUGGCCACAGCAGAGGAGUUCACGUCGCAGCCCCUGUCAGAUUCUGGAGAAUCUGCGAAUUCAGCUGUGUAUUUC [G8U A21G C23A U54A U69A A75G C79U] showed a self-cleavage of 0.03. UAACAGGUGGCCACAGCAGAGGCGCUCACGUCGCAGCCCCUGUCUGAUUCUGGUGAAUCAGCGAAUUCUGCUGUAUAUCUC [G8U A21G U25C A45U U60A] showed a self-cleavage of 0.08. In the case of UAACAGGUGGCCACAGCAGAGGCGUACACGUCGCAGCCCCUGUCAGACUCAGGUGAAUCUGCGAGUUCUGCUGUAUAUCUC [G8U A21G U26A U48C U51A A65G], the self-cleavage is reported as 0.03. For UAACAGGUGGCCACAGCAGAGGCGUUCACGUCGCAGCCCCUGGCUGAUUCUGGUGAAUCUGCGAAUUCUGCUGUAAACCUC [G8U A21G U43G A45U U76A U78C], the self-cleavage was 0.05. In the case of UAACAGGUGGCCACAGCAGAGGCGUUCACGUCGCAGCCCCUGUCAGAUUCUGGUGAAUCUGCGAAUUCUGCAGUAUAUCCC [G8U A21G U72A U80C], the self-cleavage is reported as 0.06. Variant UAACAGGUGGCCACAGCAGAUGCGUUCACGUCGCAGCCCCUGUCAGAUUCUGGUGGAUCUGCGAAUUCUGCUGCAUAUCUC [G8U A21U A56G U74C] has a self-cleavage of 0.06. Work on UAACAGGUGGCCACAGCAGAUGCGCUCACGUCGCGGCCCCAGUCAGAUUCUGGUGAAUCUGCGGAUUCUGCUGUAUAUCUC [G8U A21U U25C A35G U41A A64G] yielded a self-cleavage of 0.04. For UAACAGGUGGCCACAGCAGAUGCGUUCACGUCGCAGCCCCUGUCAGAUUCUGGUGAAUCUGCGAAUUCAGCCGUAUAUCUC [G8U A21U U69A U72C], the self-cleavage was 0.07. With UAACAGGUGGCCACAGCAGAAGCGUUCCCGUCGCGGCCCCUGUCAGAUUCUGGUGAAUCUGCGAAUUCUGCUGUAUUUCUC [G8U A28C A35G A77U] the self-cleavage was 0.05. Work on UAACAGGUGGCCACAGCAGAAGCGUUCCCGUCGCAGCCCAGGUCAGACUCUGGUGAAUCUGCGAAGUCUGCUGUAUGUCUC [G8U A28C C40A U41G U48C U66G A77G] yielded a self-cleavage of 0.03.
